# Experimental data published in PubChem BioAssay AID485297 (National Center for Advancing Translational Sciences (NCATS), 2010).
# About 9,100 (2.8%) of roughly 320,000 compounds were called active. Inconclusive results, whose numbers are uncertain, are shown with a selection of clear calls. Calls follow the shape of the dose curve; as a rule, active = well fitted activation curve with a large enough effect; inconclusive = small, poorly fitted or top-dose-only effect; inactive = no such curve, though single readings can be large or run the other way. No potency is given beside an inconclusive call; the fits are too rough.
# Assay: qHTS Assay for Rab9 Promoter Activators; also: nearly all actives have a fitted effect of over 60% in size
# Conditions: Huh7 Rab9 promoter-luciferase reporter, luminescence, 24 h; series mostly up to 9.22 µM
# Method in brief: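 Huh7 cells stably carrying Rab9 promoter–luciferase reporter, plated 1500 cells/well, compound added after 2 h and incubated 24 h at 37 °C; luciferase luminescence then read after 10 min with detection reagent.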
# Potency is read from the fitted curve at half-maximal effect; tags tell the direction and shape of the fitted curve.
row,Compound,Potency
1,COc1ccc(OCC(O)CON2C(=O)c3ccccc3C2=O)cc1 (centres undefined),inactive
2,CNc1nnc(CSc2nc3ccccc3s2)s1,"inconclusive [activator, single point]"
3,Cc1ccc(NC(=O)CSc2ncc3ccccn23)cc1,"inconclusive [activator, partial curve, poor fit]"
4,O=C(NC(=S)Nc1cccnc1Cl)c1ccco1,"inconclusive [activator, single point]"
5,c1ccc2oc(CCc3nc4ccccc4o3)nc2c1,"inconclusive [activator, single point]"
6,O=C(CSCc1ccc(F)cc1)N1CCN(c2ccccc2)CC1,"inconclusive [activator, single point]"
7,O=C(CN(Cc1ccccc1)C(=O)CCC(=O)Nc1nccs1)NCc1ccccc1,inactive
8,CCCCNC(=O)C1CC(c2cccc(F)c2)=NO1 (centres undefined),"inconclusive [activator, partial curve]"
9,Cc1ccc(C(=O)OCc2nc3ccccc3s2)o1,"inconclusive [activator, partial curve]"
10,CN(C)c1nc(N)nc(CSc2nc3cc(Cl)ccc3o2)n1,"inconclusive [activator, partial curve]"
11,CC(C)Nc1nnc(SC(C)C(=O)Nc2ccc(N3CCOCC3)cc2)s1 (centres undefined),inactive
12,Cn1nnc(NC(=O)c2cccc(OCc3ccccc3)c2)n1,inactive
13,CC(C)Cc1cc(C(=O)Nc2cccnc2)no1,"inconclusive [activator, single point]"
14,CS(=O)(=O)N1Cc2ccccc2CC1C(=O)O (centres undefined),"inconclusive [activator, single point]"
15,CSc1ccc(CN(C)C(=O)C(Cc2ccccc2)NC(=O)c2ccccc2)cc1 (centres undefined),"inconclusive [activator, partial curve]"
16,Cc1cc(C)c2c(CN3CCC(C)CC3)cc(=O)oc2c1,"inconclusive [activator, partial curve]"
17,CCOc1ccc(N=C2NC(=O)S/C2=C\c2ccc(N(C)C)cc2)cc1,"inconclusive [activator, full curve]"
18,CCN1C(=O)[C@H]2[C@@H](c3ccc(C)cc3)N3C(=O)N(c4cccc(Cl)c4)C(=O)[C@@]3(CC)[C@H]2C1=O,inactive
19,Cn1cnc2cc(NC(=O)c3ccco3)ccc21,"inconclusive [activator, partial curve]"
20,COc1ccc(C(=O)Nc2nc3ccc(OC)cc3s2)cc1,"inconclusive [activator, partial curve]"
21,O=C(Nc1ccc(Cl)c(Cl)c1)Nc1ccccn1,active: 4.47 µM
22,CCCSc1ccc([C@@H]2[C@@H]3C(=O)N(C)C(=O)[C@@H]3[C@]3(C(=O)OC)CCCN23)cc1OC,inactive
23,CCOc1cc2c(C#N)c(N3CCCCC3)nc(N)c2c(N)n1,"inconclusive [activator, single point]"
24,Cc1ccc(C(=O)Nc2ccc(-c3csc(C)n3)cc2)cc1,"inconclusive [activator, partial curve]"
25,Cc1[nH]nc(-c2ccc(OCc3cnn(-c4ccccc4)c3)c(C)c2O)c1Oc1ccccc1,"inconclusive [activator, single point]"

row,Compound,Potency
1,O=C(Nc1ccc(N2CCCC2)c(Cl)c1)c1ccco1,active: 0.501 µM
2,CCCCn1nnc(NC(=S)NC(=O)c2cccs2)n1,"inconclusive [activator, single point]"
3,CCCC(C(=O)O)n1c(O)c(C=C2N=c3ccccc3=N2)sc1=S (centres undefined),inactive
4,CC(=O)c1cccc(Nc2ccc(-c3ccccc3F)nn2)c1,active: 2.24 µM
5,CC1CCN(c2nnc(N)s2)CC1,active: 1.26 µM
6,O=C(COc1ccc(/C=N/NC(=O)c2cc3ccccc3o2)cc1Br)Nc1ccccc1,"inconclusive [activator, single point]"
7,O=C(/C=C/c1ccccc1)Nc1ccc(Cl)cn1,"inconclusive [activator, full curve]"
8,COCCNC(=O)CSc1nc(-c2ccccc2)cs1,"inconclusive [activator, partial curve]"
9,COc1ccc(/C=C/c2ccncc2)cc1OC,inactive
10,CC1CCCCN1S(=O)(=O)c1ccc(C(=O)Nc2sccc2C(N)=O)cc1 (centres undefined),"inconclusive [activator, partial curve]"
11,O=C(O)c1cc(N/N=C/c2c(O)ccc3ccccc23)ccc1Cl,active: 1.41 µM
12,CCC(C)(C)NC(=O)C(c1ccc(F)cc1)N(Cc1cccc(OC)c1)C(=O)c1cnccn1 (centres undefined),inactive
13,C[C@H](NC(=O)c1ccco1)C(=O)NCc1cccs1,inactive
14,CC1OC(Nc2ccc(N=Nc3ccccc3)cc2)C(O)C(O)C1O (centres undefined),"inconclusive [activator, single point]"
15,Cc1c(C(=O)N2CCN(S(=O)(=O)c3ccc(F)cc3)CC2)oc2ccccc12,inactive
16,Cc1cccn2c(N)c(-c3ccccc3)nc12,active: 3.55 µM
17,CC1CCCCN1C(=O)COC(=O)c1n[nH]c2ccccc12 (centres undefined),"inconclusive [activator, single point]"
18,COc1ccc(CN2CCn3ncc(C(=O)Nc4ccccc4)c3C2=O)cc1,"inconclusive [activator, partial curve, poor fit]"
19,CCOc1cc(C2c3c(n[nH]c3C)C(=O)N2c2ccc(C)cc2)ccc1O (centres undefined),inactive
20,O=C(NNc1nc(-c2ccc(Br)cc2)cs1)c1ccco1,"inconclusive [activator, single point]"
21,CCOc1ccc(/C=N/NC(=O)Cc2cccs2)cc1,"inconclusive [activator, partial curve]"
22,CC/C(C)=N/Nc1nc(-c2cc3cccc(OC)c3oc2=O)cs1,active: 1.78 µM
23,CCOc1ccc(/C=C2/SC(=O)NC2=S)cc1,"inconclusive [activator, single point]"
24,O=C(NCC(=O)N1CCOCC1)c1ccc(Cl)cc1,"inconclusive [activator, single point]"
